Assay results: PubChem BioAssay AID686979 (National Center for Advancing Translational Sciences (NCATS), 2013)
“And” between values parts separate entries of the source, which are not always exact repeats. Identical values can stand only once. Out of some 420,000 compounds screened, about 50,000 (12%) were called active. The inconclusive results got no clear call from the source; some entries with a clear call stand among them for comparison. Calls follow the shape of the dose curve; as a rule, active = well fitted inhibition curve with a large enough effect; inconclusive = small, poorly fitted or top-dose-only effect; inactive = flat fitted curve, though single readings scatter. A potency beside an inconclusive call is a rough fit, not a confirmed value.

experiment: qHTS for Inhibitors of human tyrosyl-DNA phosphodiesterase 1 (TDP1): qHTS in cells in presence of CPT; conditions: chicken DT40 Tdp1-/-;hTDP1 cells + 20 nM CPT, ATP luminescence, 48 h; activity change, negative = growth inhibition: at 46.2 µM (top of the series); also: nearly all actives have a fitted effect of over 55% in size
Procedure, shortened: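 Chicken DT40 Tdp1-/- cells complemented with human TDP1, 400 cells/well, exposed to compounds plus 20 nM camptothecin for at least 48 h at 37 C; viability read as ATP content by CellTiter-Glo luminescence.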
% is scaled to controls: 0 for no effect and ±100 for the full control effect; potency is read from the fitted curve at half-maximal effect; tags tell the direction and shape of the fitted curve.

| Compound | Potency | activity change, negative = growth inhibition |
| --- | --- | --- |
| CCN(CC)C(=O)CSc1nc2sc(C)c(C)c2c(=O)[nH]1 | inconclusive: 29.1 µM [inhibitor, single point] |  |
| CN(C)S(=O)(=O)c1ccc(C(=O)Nc2ccc(CCC(=O)N3CCCC3)cc2)cc1 | inconclusive: 20.6 µM [inhibitor, partial curve, poor fit] |  |
| COc1ccccc1CNC(=O)C1CCN(S(=O)(=O)c2ccc3c(c2)CC(C)N3C(=O)C2CC2)CC1 (configuration not stated) | inconclusive: 18.4 µM [inhibitor, partial curve] |  |
| CCN(Cc1ccccc1)C(=O)c1cccc(S(=O)(=O)N2CCN(c3ccc(F)cc3)CC2)c1 | active: 18.4 µM |  |
| O=C1NC(=S)SC1=Cc1ccccc1Cl | inactive |  |
| CCC(Sc1nc2c(cnn2-c2ccccc2)c(=O)[nH]1)C(=O)OC (configuration not stated) | inactive |  |
| CCC(=O)N(CCC(Cc1ccccc1)c1ccc2c(c1)OCO2)Cc1ccccc1F (configuration not stated) | active: 7.31 µM |  |
| CN(C)S(=O)(=O)c1ccc2c(c1)nc(CCC(=O)NCC(=O)Nc1ccc(F)c(F)c1F)n2C | inactive |  |
| COc1cccc2c(=O)c3cccc(N)c3[nH]c12 | inconclusive: 20.6 µM [inhibitor, single point] |  |
| COc1ccccc1NC(=O)C1CCC(CNS(=O)(=O)c2ccc3c(c2)CC(C)N3C(C)=O)CC1 (configuration not stated) | active: 10.3 µM |  |
| COC(=O)CCC(=O)c1oc2ccccc2c1N | inactive |  |
| C=CCn1c(Cc2cccs2)nnc1SCC(=O)Nc1cc(OC)cc(OC)c1 | inconclusive: 29.1 µM [inhibitor, single point] |  |
| O=C(NC(=S)NNC(=O)c1ccccc1O)c1cccnc1 | inconclusive: 29.1 µM [inhibitor, single point] |  |
| COc1ccc(C2CC(=O)C3=C(C2)NC(C)=C(C(=O)Nc2ccccc2C)C3c2coc3ccc(C)cc3c2=O)cc1OC (configuration not stated) | active: 20.6 µM |  |
| O=[N+]([O-])c1cc2c(cc1Br)-c1ccccc1C2 | inactive |  |
| COc1cccc(/C=N/NC(N)=S)c1OS(=O)(=O)c1ccccc1 | inconclusive: 29.1 µM [inhibitor, single point] |  |
| CN(C)c1ccc(-c2c(-c3ccc4c(c3)OCO4)noc2-c2ccsc2)cn1 | inconclusive: 12.6 µM [inhibitor, partial curve] and inconclusive: 23.1 µM [inhibitor, single point] |  |
| Clc1ccc(SCCCN2CCCCC2)cc1 | inactive |  |
| Cc1ccc(C(=O)C[n+]2cc(-c3ccc(C)cc3)n3c2CCCCC3)cc1 | active: 0.206 µM |  |
| O=C(Nc1ccc(S(=O)(=O)N2CCCCCC2)cc1)c1cc(=O)c2ccccc2o1 | inconclusive: 7.31 µM [inhibitor, partial curve] |  |
| Cc1cc(-n2c(C)nc3ccccc3c2=O)ccc1NC(=O)c1ccc([N+](=O)[O-])cc1 | inconclusive: 2.59 µM [inhibitor, partial curve, poor fit] |  |
| CCc1ccc(NS(=O)(=O)c2ccc3oc(=O)ccc3c2)cc1 | inconclusive: 29.1 µM [inhibitor, single point] |  |
| CCN(CC)CCNCc1cc(Cl)ccc1OCc1ccccc1F | inconclusive: 16.4 µM [inhibitor, single point] |  |
| CC1CCCN(Cc2c(O)ccc3c2O/C(=C\c2ccco2)C3=O)C1 (configuration not stated) | active: 14.6 µM |  |

| Compound | Potency | activity change, negative = growth inhibition |
| --- | --- | --- |
| CC(C)c1ccc(NC(=O)C2(C)Cc3c(-c4ccc5c(c4)OCO5)ccnc3O2)cc1 (configuration not stated) | active: 23.1 µM |  |
| CC(N)(C(=O)O)c1ccc(-c2nn[nH]n2)cc1 (configuration not stated) | inactive |  |
| CC1=C(C(=O)Nc2ccccc2C(=O)N2CCC(C)CC2)SCCO1 | inactive |  |
| CCCCc1ccc(NC(=S)N2CCCC2)cc1 | active: 11.6 µM |  |
| CSCC[C@H](NC(=O)c1cccc([N+](=O)[O-])c1C)c1nc2ccccc2[nH]1 | inactive |  |
| CSCC[C@H](NC(=O)N1CCn2c1nc1ccccc12)C(=O)NCc1ccc(C)cc1 | inconclusive: 29.1 µM [inhibitor, single point] |  |
| CCOc1ccc(N2CC(C(=O)NCc3nnnn3-c3ccc(C)c(C)c3)CC2=O)cc1 (configuration not stated) | inactive |  |
| CN(Cc1ccco1)c1ncncc1-c1ccc2c(c1)OCO2 | inconclusive: 20.6 µM [inhibitor, single point] |  |
| CCOc1ccc(NS(=O)(=O)c2ccc3[nH]cc(C(=O)NCC4CCCO4)c(=O)c3c2)cc1 (configuration not stated) | inactive |  |
| CC(C)(C)c1ccc(CC(=O)N2CCC2(C)C(=O)Nc2cccc3cccnc23)cc1 (configuration not stated) | inconclusive: 29.1 µM [inhibitor, single point] |  |
| CC(=O)c1ccc(N2CCN(C(=O)CCS(=O)(=O)c3ccc4c(c3)oc(=O)n4C)CC2)cc1 | inconclusive: 16.4 µM [inhibitor, partial curve] |  |
| CNC(=O)c1[nH]cnc1C(=O)N[C@@H](CC(C)C)C(=O)OC(C)(C)C | inconclusive: 29.1 µM [inhibitor, single point] |  |
| CC(=O)c1ccc(N2CCN(C(=O)c3cc4c(s3)CCCC4)CC2)cc1 | active: 23.1 µM |  |
| Cc1ccc(C(=O)OCC(=O)Nc2nc(-c3ccccc3)cs2)cc1NC(=O)c1ccco1 | inconclusive: 25.9 µM [inhibitor, single point] |  |
| CSCCCNC(=S)N1CCN(S(=O)(=O)c2cccc(C(F)(F)F)c2)CC1 |  | inconclusive: -30.5% [inhibitor] |
| Cc1ccccc1Oc1cc(NC(=O)CCCn2nc(C)c([N+](=O)[O-])c2C)cc([N+](=O)[O-])c1 | inconclusive: 29.1 µM [inhibitor, single point] |  |
| FC(F)C(F)(F)C(F)(F)C(F)(F)c1cc(-c2ccccc2)n[nH]1 | inconclusive: 16.4 µM [inhibitor, single point] |  |
| CCOC(=O)CNC(=O)CNC(=O)c1ccc(OC(C)C)cc1 | inactive |  |
| Cc1nnc(NCc2ccco2)c2ccccc12 | inactive |  |
| CCCCC(=NCCc1c(C)[nH]c2ccccc12)C1=C(O)CC(c2ccccc2)CC1=O (configuration not stated) | active: 5.8 µM |  |
| Cn1c(=O)c2c(ncn2Cc2ccc(Cl)c(Cl)c2)n(C)c1=O | active: 23.1 µM |  |
| CCN(c1ccc2c(c1)OCO2)S(=O)(=O)c1cc(Br)cc2c1N(C(C)=O)CC2 | inconclusive: 20.6 µM [inhibitor, partial curve] |  |
| Cc1ccc(/C=C/c2nc3ccccc3[nH]2)o1 | active: 23.1 µM |  |
| COCCn1c(C)cc(C(=O)COc2cccnc2[N+](=O)[O-])c1C | inconclusive: 32.6 µM [inhibitor, single point] |  |

| Compound | Potency | activity change, negative = growth inhibition |
| --- | --- | --- |
| CC(=O)N1c2ccc(S(=O)(=O)N3CCC(C(=O)Nc4cc(C)ccn4)CC3)cc2CC1C (configuration not stated) |  | inconclusive: -36.6% [inhibitor] |
| COc1cccc2ccc(/C=C/c3ccc4c(c3)OCO4)nc12 | inconclusive: 35.5 µM [inhibitor, single point] |  |
| O/N=C(/c1ccccc1)c1cc2cc(Br)cc(Br)c2o1 | inactive |  |
| Cc1ccc(C2CC(c3ccc(Br)cc3)=NN2C(=O)CSC2=NN3CCCC(=O)N=C3S2)cc1 (configuration not stated) | inconclusive: 23.1 µM [inhibitor, single point] |  |
| Cc1nc(CC(=O)N/N=C/c2ccc(OCC(=O)O)cc2)cs1 | inactive |  |
| CCSc1ncc(Cl)c(C(=O)Nc2sc3c(c2C(=O)NC)CCCC3)n1 | inconclusive: 35.5 µM [inhibitor, single point] |  |
| O=c1c(Cl)c(N2CCOCC2)cnn1-c1nc2ccccc2[nH]1 | inactive |  |
| CCC(C)C1=CC(=Nc2c(C)n(C)n(-c3ccccc3)c2=O)C=C(C(C)CC)C1=O (configuration not stated) | inconclusive: 29.1 µM [inhibitor, single point] |  |
| CNC(=O)c1cccc(NC(=O)c2ccccc2OCc2ccccc2)c1 | inconclusive: 23.1 µM [inhibitor, partial curve] |  |
| Cc1ccc(C(=O)c2ccc(N3CCOCC3)c(F)c2)cc1 | inconclusive: 16.4 µM [inhibitor, single point] |  |
| Cc1cc(C)n2nc(SCCOc3ccccc3)nc2n1 | inactive |  |
| Nc1ccc(C(=O)O)c(O)c1 | inactive |  |
| CC1CC(C)CN(C(=O)CSCC(=O)Nc2nc(-c3cccs3)cs2)C1 (configuration not stated) | inconclusive: 29.1 µM [inhibitor, single point] |  |
| COc1cccc(NC(=O)CCc2nnc3ccc(N4CCN(c5cccc(OC)c5)CC4)nn23)c1 | inconclusive: 23.1 µM [inhibitor, single point] |  |
| CCc1cccc(NC(=O)CN(C)S(=O)(=O)c2cccc3cccnc23)c1 | active: 16.4 µM |  |
| CCc1ccc(/C=N\NC(=O)c2ccc(Br)o2)s1 | inconclusive: 29.1 µM [inhibitor, single point] |  |
| COc1ccc(C(CNC(=O)c2ccc(S(=O)(=O)N(C)C)cc2)N(C)C)cc1 (configuration not stated) | inactive |  |
| CCOc1ccc(NC2OC(CO)C(O)C(O)C2O)c([N+](=O)[O-])c1 (configuration not stated) | inactive |  |
| O=S(=O)(c1ccc(OCc2nc3ccccc3s2)c(Cl)c1)N1CCOCC1 | inactive |  |
| Cc1ccc2cc(CN(Cc3ccco3)S(=O)(=O)c3c(C)ccc4nsnc34)c(=O)[nH]c2c1 | inconclusive: 15.8 µM [inhibitor, partial curve, poor fit] |  |
| O=C(CNC(=O)c1ccccc1)OC(C(=O)O)c1ccc(F)cc1 (configuration not stated) | inconclusive: 11.6 µM [inhibitor, partial curve] |  |
| CC1CCN(C2=C(NS(=O)(=O)c3ccccc3)C(=O)c3ccccc3C2=O)CC1 | inconclusive: 25.9 µM [inhibitor, single point] |  |
| COc1ccc(-c2ccc(OC)cc2)cc1 | inactive |  |
| O=C(N/N=C/c1sc(=O)n(-c2ccccc2)c1Cl)c1ccccc1 | inconclusive: 29.1 µM [inhibitor, single point] |  |
